# This is one part of the list.
# B1: AT1G15820(2) (Arabidopsis thaliana), Q9LMQ2 (protein)
# chain: MAMAVSGAVLSGLGSSFLTGGKRGATALASGVGTGAQRVGRKTLIVAAAAAQPKKSWIPAVKGGGNFLDPEWLDGSLPGDFGFDPLGLGKDPAFLKWYREAELIHGRWAMAAVLGIFVGQAWSGVAWFEAGAQPDAIAPFSFGSLLGTQLLLMGWVESKRWVDFFNPDSQSVEWATPWSKTAENFANYTGDQGYPGGRFFDPLGLAGKNRDGVYEPDFEKLERLKLAEIKHSRLAMVAMLIFYFEAGQGKTPLGALGL
# Experiments:
# Experiment in all cases: glycan array binding signal (z-score within array); higher = stronger binding
# Conditions in all cases: glycan notation: IUPAC condensed, linker removed
# [1] = biological target: Fuc(a1-2)Gal
# Outline: (§1)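 The binding signal is a Z-score computed within each array. Data were drawn from 3228 arrays in the Consortium for Functional Glycomics database, restricted to those with a known protein sequence. Scores were averaged over arrays of the same protein sequence at different concentrations or buffers, and over linkers, and negative values can be taken as non-binding.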
# [2] = biological target: Fuc(a1-2)Gal(b1-3)GalNAc
# Outline: as §1
# [3] = biological target: Fuc(a1-2)Gal(b1-3)GalNAc(a1-3)[Fuc(a1-2)]Gal(b1-4)Glc
# Outline: as §1
# [4] = biological target: Fuc(a1-2)Gal(b1-3)GalNAc(a1-3)[Fuc(a1-2)]Gal(b1-4)GlcNAc
# Outline: as §1
# [5] = biological target: Fuc(a1-2)Gal(b1-3)GalNAc(b1-3)Gal
# Outline: as §1
# [6] = biological target: Fuc(a1-2)Gal(b1-3)GalNAc(b1-3)Gal(a1-4)Gal(b1-4)Glc
# Outline: as §1
# [7] = biological target: Fuc(a1-2)Gal(b1-3)GalNAc(b1-4)[Neu5Ac(a2-3)]Gal(b1-4)Glc
# Outline: as §1
# [8] = biological target: Fuc(a1-2)Gal(b1-3)GlcNAc
# Outline: as §1
# [9] = biological target: Fuc(a1-2)Gal(b1-3)GlcNAc(b1-2)Man(a1-3)[Fuc(a1-2)Gal(b1-3)GlcNAc(b1-2)Man(a1-6)]Man(b1-4)GlcNAc(b1-4)GlcNAc
# Outline: as §1
# [10] = biological target: Fuc(a1-2)Gal(b1-3)GlcNAc(b1-2)Man(a1-3)[Fuc(a1-2)Gal(b1-3)GlcNAc(b1-2)Man(a1-6)]Man(b1-4)GlcNAc(b1-4)[Fuc(a1-6)]GlcNAc
# Outline: as §1
# [11] = biological target: Fuc(a1-2)Gal(b1-3)GlcNAc(b1-3)Gal(b1-4)Glc
# Outline: as §1
# [12] = biological target: Fuc(a1-2)Gal(b1-3)GlcNAc(b1-3)GalNAc
# Outline: as §1
# [13] = biological target: Fuc(a1-2)Gal(b1-3)GlcNAc(b1-3)[Fuc(a1-2)Gal(b1-3)GlcNAc(b1-6)]GalNAc
# Outline: as §1
# [14] = biological target: Fuc(a1-2)Gal(b1-3)GlcNAc(b1-3)[Gal(b1-4)GlcNAc(b1-6)]Gal(b1-4)Glc
# Outline: as §1
# [15] = biological target: Fuc(a1-2)Gal(b1-3)GlcNAc(b1-3)[Neu5Ac(a2-6)Gal(b1-4)GlcNAc(b1-6)]Gal(b1-4)Glc
# Outline: as §1
# [16] = biological target: Fuc(a1-2)Gal(b1-3)GlcNAc6S
# Outline: as §1
# [17] = biological target: Fuc(a1-2)Gal(b1-3)[Fuc(a1-4)]GlcNAc
# Outline: as §1
# [18] = biological target: Fuc(a1-2)Gal(b1-3)[Fuc(a1-4)]GlcNAc(b1-2)Man(a1-3)[Fuc(a1-2)Gal(b1-3)[Fuc(a1-4)]GlcNAc(b1-2)Man(a1-3)]Man(b1-4)GlcNAc(b1-4)GlcNAc
# Outline: as §1
# [19] = biological target: Fuc(a1-2)Gal(b1-3)[Fuc(a1-4)]GlcNAc(b1-2)Man(a1-3)[Fuc(a1-2)Gal(b1-3)[Fuc(a1-4)]GlcNAc(b1-2)Man(a1-6)]Man(b1-4)GlcNAc(b1-4)[Fuc(a1-6)]GlcNAc(b1-4)[Fuc(a1-6)]GlcNAc
# Outline: as §1
# [20] = biological target: Fuc(a1-2)Gal(b1-3)[Fuc(a1-4)]GlcNAc(b1-3)[Fuc(a1-3)[Gal(b1-4)]GlcNAc(b1-6)]Gal(b1-4)Glc
# Outline: as §1
# [21] = biological target: Fuc(a1-2)Gal(b1-3)[Fuc(a1-4)]GlcNAc(b1-3)[Gal(b1-4)GlcNAc(b1-6)]Gal(b1-4)Glc
# Outline: as §1
# [22] = biological target: Fuc(a1-2)Gal(b1-4)Fuc(a1-3)]GlcNAc(b1-2)Man(a1-3)[Fuc(a1-2)Gal(b1-4)[Fuc(a1-3)]GlcNAc(b1-2)Man(a1-6)]Man(b1-4)GlcNAc(b1-4)GlcNAc
# Outline: as §1
# [23] = biological target: Fuc(a1-2)Gal(b1-4)Glc
# Outline: as §1
# [24] = biological target: Fuc(a1-2)Gal(b1-4)Glc6S
# Outline: as §1
# [25] = biological target: Fuc(a1-2)Gal(b1-4)GlcNAc
# Outline: as §1
# [26] = biological target: Fuc(a1-2)Gal(b1-4)GlcNAc(b1-2)Man
# Outline: as §1
# [27] = biological target: Fuc(a1-2)Gal(b1-4)GlcNAc(b1-2)Man(a1-3)[Fuc(a1-2)Gal(b1-4)GlcNAc(b1-2)Man(a1-6)]Man(b1-4)GlcNAc(b1-4)GlcNAc
# Outline: as §1
# [28] = biological target: Fuc(a1-2)Gal(b1-4)GlcNAc(b1-2)Man(a1-3)[Fuc(a1-2)Gal(b1-4)GlcNAc(b1-2)Man(a1-6)]Man(b1-4)GlcNAc(b1-4)[Fuc(a1-6)]GlcNAc
# Outline: as §1
# [29] = biological target: Fuc(a1-2)Gal(b1-4)GlcNAc(b1-2)[Fuc(a1-2)Gal(b1-4)GlcNAc(b1-4)]Man(a1-3)[Fuc(a1-2)Gal(b1-4)GlcNAc(b1-2)Man(a1-6)]Man(b1-4)GlcNAc(b1-4)GlcNAc
# Outline: as §1
# [30] = biological target: Fuc(a1-2)Gal(b1-4)GlcNAc(b1-3)Gal(b1-4)GlcNAc
# Outline: as §1
# [31] = biological target: Fuc(a1-2)Gal(b1-4)GlcNAc(b1-3)Gal(b1-4)GlcNAc(b1-2)Man(a1-3)[Fuc(a1-2)Gal(b1-4)GlcNAc(b1-3)Gal(b1-4)GlcNAc(b1-2)Man(a1-6)]Man(b1-4)GlcNAc(b1-4)GlcNAc
# Outline: as §1
# [32] = biological target: Fuc(a1-2)Gal(b1-4)GlcNAc(b1-3)Gal(b1-4)GlcNAc(b1-3)Gal(b1-4)GlcNAc
# Outline: as §1
# [33] = biological target: Fuc(a1-2)Gal(b1-4)GlcNAc(b1-3)GalNAc
# Outline: as §1
# [34] = biological target: Fuc(a1-2)Gal(b1-4)GlcNAc(b1-3)[Fuc(a1-2)Gal(b1-4)GlcNAc(b1-6)]GalNAc
# Outline: as §1
# [35] = biological target: Fuc(a1-2)Gal(b1-4)GlcNAc(b1-3)[Fuc(a1-3)[Gal(b1-4)]GlcNAc(b1-6)]Gal(b1-4)Glc
# Outline: as §1
# [36] = biological target: Fuc(a1-2)Gal(b1-4)GlcNAc(b1-6)GalNAc
# Outline: as §1
# [37] = biological target: Fuc(a1-2)Gal(b1-4)GlcNAc6S
# Outline: as §1
# [38] = biological target: Fuc(a1-2)Gal(b1-4)[Fuc(a1-3)]GlcNAc
# Outline: as §1
# [39] = biological target: Fuc(a1-2)Gal(b1-4)[Fuc(a1-3)]GlcNAc(b1-2)Man(a1-3)[Fuc(a1-2)Gal(b1-4)[Fuc(a1-3)]GlcNAc(b1-2)Man(a1-6)]Man(b1-4)GlcNAc(b1-4)[Fuc(a1-6)]GlcNAc
# Outline: as §1
# [40] = biological target: Fuc(a1-2)Gal(b1-4)[Fuc(a1-3)]GlcNAc(b1-2)[Fuc(a1-2)Gal(b1-4)[Fuc(a1-3)]GlcNAc(b1-4)]Man(a1-3)[Fuc(a1-2)Gal(b1-4)[Fuc(a1-3)]GlcNAc(b1-2)Man(a1-6)]Man(b1-4)GlcNAc(b1-4)GlcNAc
# Outline: as §1
# [41] = biological target: Fuc(a1-2)Gal(b1-4)[Fuc(a1-3)]GlcNAc(b1-3)Gal(b1-4)[Fuc(a1-3)]GlcNAc
# Outline: as §1
# [42] = biological target: Fuc(a1-2)Gal(b1-4)[Fuc(a1-3)]GlcNAc(b1-3)Gal(b1-4)[Fuc(a1-3)]GlcNAc(b1-3)Gal(b1-4)[Fuc(a1-3)]GlcNAc
# Outline: as §1
# [43] = biological target: Fuc(a1-2)Gal(b1-4)[Fuc(a1-3)]GlcNAc(b1-3)GalNAc
# Outline: as §1
# [44] = biological target: Fuc(a1-2)Gal(b1-4)[Fuc(a1-3)]GlcNAc(b1-3)[Neu5Ac(a2-6)Gal(b1-4)GlcNAc(b1-6)]Gal(b1-4)Glc
# Outline: as §1
# [45] = biological target: Fuc(a1-2)Gal3S(b1-4)GlcNAc
# Outline: as §1
binder,measurement,setting,value
B1,glycan array binding signal (z-score),[1],0.517
same,glycan array binding signal (z-score),[2],-0.486
same,glycan array binding signal (z-score),[3],-0.155
same,glycan array binding signal (z-score),[4],0.079
same,glycan array binding signal (z-score),[5],0.168
same,glycan array binding signal (z-score),[6],-0.595
same,glycan array binding signal (z-score),[7],0.126
same,glycan array binding signal (z-score),[8],-0.442
same,glycan array binding signal (z-score),[9],0.522
same,glycan array binding signal (z-score),[10],0.063
same,glycan array binding signal (z-score),[11],-0.154
same,glycan array binding signal (z-score),[12],-0.637
same,glycan array binding signal (z-score),[13],0.037
same,glycan array binding signal (z-score),[14],-0.18
same,glycan array binding signal (z-score),[15],-0.367
same,glycan array binding signal (z-score),[16],0.649
same,glycan array binding signal (z-score),[17],-0.24
same,glycan array binding signal (z-score),[18],0.497
same,glycan array binding signal (z-score),[19],-0.001
same,glycan array binding signal (z-score),[20],-0.344
same,glycan array binding signal (z-score),[21],0.151
same,glycan array binding signal (z-score),[22],-0.256
same,glycan array binding signal (z-score),[23],-0.536
same,glycan array binding signal (z-score),[24],-0.057
same,glycan array binding signal (z-score),[25],-0.243
same,glycan array binding signal (z-score),[26],-0.083
same,glycan array binding signal (z-score),[27],-0.533
same,glycan array binding signal (z-score),[28],-0.613
same,glycan array binding signal (z-score),[29],-0.2
same,glycan array binding signal (z-score),[30],0.015
same,glycan array binding signal (z-score),[31],0.501
same,glycan array binding signal (z-score),[32],0.735
same,glycan array binding signal (z-score),[33],-0.35
same,glycan array binding signal (z-score),[34],-0.414
same,glycan array binding signal (z-score),[35],-0.041
same,glycan array binding signal (z-score),[36],-0.326
same,glycan array binding signal (z-score),[37],0.69
same,glycan array binding signal (z-score),[38],-0.066
same,glycan array binding signal (z-score),[39],0.034
same,glycan array binding signal (z-score),[40],0.178
same,glycan array binding signal (z-score),[41],-0.394
same,glycan array binding signal (z-score),[42],-0.283
same,glycan array binding signal (z-score),[43],0.194
same,glycan array binding signal (z-score),[44],-0.437
same,glycan array binding signal (z-score),[45],-0.407
